Source: article PMC7188947
These are yes or no findings as the source states them, for the method shown. In cells and extracts the contact can be indirect. Some results given as binding are weak or reduced against the parent protein; the word gives no strength.

Protein sequences, listed by entry. Tags and fused reporters are not part of them. Lines headed by an entry give the natural chain unless they say otherwise; changes in a name come on top.
UniProt Q05655: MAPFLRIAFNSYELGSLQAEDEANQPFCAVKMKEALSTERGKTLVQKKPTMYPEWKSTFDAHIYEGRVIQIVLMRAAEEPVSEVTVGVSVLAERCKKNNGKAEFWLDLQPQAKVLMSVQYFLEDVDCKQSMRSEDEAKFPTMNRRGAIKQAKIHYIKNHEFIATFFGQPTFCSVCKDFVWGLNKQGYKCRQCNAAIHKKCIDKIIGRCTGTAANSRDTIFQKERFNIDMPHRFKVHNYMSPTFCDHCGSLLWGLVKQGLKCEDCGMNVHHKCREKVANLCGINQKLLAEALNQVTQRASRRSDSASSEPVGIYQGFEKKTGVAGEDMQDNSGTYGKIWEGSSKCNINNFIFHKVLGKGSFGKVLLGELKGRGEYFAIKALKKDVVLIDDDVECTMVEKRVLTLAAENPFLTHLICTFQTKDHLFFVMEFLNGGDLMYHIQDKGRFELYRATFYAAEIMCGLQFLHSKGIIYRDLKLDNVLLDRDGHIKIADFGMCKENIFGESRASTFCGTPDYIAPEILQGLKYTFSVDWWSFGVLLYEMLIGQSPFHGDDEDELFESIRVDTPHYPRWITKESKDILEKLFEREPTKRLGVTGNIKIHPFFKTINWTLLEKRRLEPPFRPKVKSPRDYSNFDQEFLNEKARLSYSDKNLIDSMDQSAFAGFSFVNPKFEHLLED
UniProt P28867: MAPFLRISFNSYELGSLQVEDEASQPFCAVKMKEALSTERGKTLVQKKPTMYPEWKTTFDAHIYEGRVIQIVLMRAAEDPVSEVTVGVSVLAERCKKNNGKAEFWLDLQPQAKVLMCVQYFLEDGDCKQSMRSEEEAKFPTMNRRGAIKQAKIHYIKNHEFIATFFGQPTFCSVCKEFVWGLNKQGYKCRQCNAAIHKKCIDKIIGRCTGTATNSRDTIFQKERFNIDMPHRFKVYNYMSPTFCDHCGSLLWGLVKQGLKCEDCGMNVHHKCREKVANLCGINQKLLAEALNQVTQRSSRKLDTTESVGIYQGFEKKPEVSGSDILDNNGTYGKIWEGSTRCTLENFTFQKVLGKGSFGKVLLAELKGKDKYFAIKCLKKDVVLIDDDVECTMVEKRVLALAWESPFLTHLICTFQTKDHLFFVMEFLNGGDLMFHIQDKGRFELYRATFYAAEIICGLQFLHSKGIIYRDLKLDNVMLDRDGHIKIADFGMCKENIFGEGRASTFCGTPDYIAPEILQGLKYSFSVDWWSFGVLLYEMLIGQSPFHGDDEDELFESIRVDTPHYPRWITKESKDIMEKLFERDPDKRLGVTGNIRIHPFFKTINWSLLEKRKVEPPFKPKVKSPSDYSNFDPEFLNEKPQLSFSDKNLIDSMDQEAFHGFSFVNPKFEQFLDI

Key:
[1] = biological target: Flag-PKCδ (human protein kinase C delta fused with Flag tag) (human) (UniProt Q05655); assay: co-IP; HEK-293T cells transfected with Flag-PKCδ and Myc-A20 or A20 truncates; RIPA lysate, pre-cleared, antibody 5 h at 4°C, protein G agarose overnight; anti-Flag antibody for the precipitation (Figure 6C); Western blot
[2] = biological target: endogenous PKCδ (mouse macrophages) (mouse (endogenous in Raw264.7 and BMDM)) (UniProt P28867); assay: co-IP; BMDM cells treated with poly(I:C) or PBS for 2 h; lysate immunoprecipitated with anti-PKCδ antibody; endogenous proteins; Western blot
[3] = biological target: endogenous PKCδ (mouse macrophages) (mouse (endogenous in Raw264.7 and BMDM)) (UniProt P28867); assay: co-IP; Raw264.7 cells treated with poly(I:C) or PBS for 2 h; lysate immunoprecipitated with anti-PKCδ antibody; endogenous proteins; Western blot

B1: A20-2 (384-790aa), truncated region of human A20 including the Zn fingers domain (domain or fragment, UniProt P21580 384-790)
chain: DVKCETPNCPFFMSVNTQPLCHECSERRQKNQNKLPKLNSKPGPEGLPGMALGASRGEAYEPLAWNPEESTGGPHSAPPTAPSPFLFSETTAMKCRSPGCPFTLNVQHNGFCERCHNARQLHASHAPDHTRHLDPGKCQACLQDVTRTFNGICSTCFKRTTAEASSSLSTSLPPSCHQRSKSDPSRLVRSPSPHSCHRAGNDAPAGCLSQAARTPGDRTGTSKCRKAGCVYFGTPENKGFCTLCFIEYRENKHFAAASGKVSPTASRFQNTIPCLGRECGTLGSTMFEGYCQKCFIEAQNQRFHEAKRTEEQLRSSQRRDVPRTTQSTSRPKCARASCKNILACRSEELCMECQHPNQRMGPGAHRGEPAPEDPPKQRCRAPACDHFGNAKCNGYCNECFQFKQMYG
binding [1]: binds

B2: endogenous A20 (mouse macrophages) (enzyme, UniProt Q60769 1-775)
chain: MAEQLLPQALYLSNMRKAVKIRERTPEDIFKPTNGIIYHFKTMHRYTLEMFRTCQFCPQFREIIHKALIDRSVQASLESQKKLNWCREVRKLVALKTNGDGNCLMHAACQYMWGVQDTDLVLRKALCSTLKETDTRNFKFRWQLESLKSQEFVETGLCYDTRNWNDEWDNLVKMASADTPAARSGLQYNSLEEIHIFVLSNILRRPIIVISDKMLRSLESGSNFAPLKVGGIYLPLHWPAQECYRYPIVLGYDSQHFVPLVTLKDSGPELRAVPLVNRDRGRFEDLKVHFLTDPENEMKEKLLKEYLIVMEIPVQGWDHGTTHLINAAKLDEANLPKEINLVDDYFELVQHEYKKWQENSDQARRAAHAQNPLEPSTPQLSLMDIKCETPNCPFFMSVNTQPLCHECSERRQKNQSKLPKLNSKLGPEGLPGVGLGSSNWSPEETAGGPHSAPPTAPSLFLFSETTAMKCRSPGCPFTLNVQHNGFCERCHARQINASHTADPGKCQACLQDVTRTFNGICSTCFKRTTAEPSSSLTSSIPASCHQRSKSDPSQLIQSLTPHSCHRTGNVSPSGCLSQAARTPGDRAGTSKCRKAGCMYFGTPENKGFCTLCFIEYRENKQSVTASEKAGSPAPRFQNNVPCLGRECGTLGSTMFEGYCQKCFIEAQNQRFHEARRTEEQLRSSQHRDMPRTTQVASRLKCARASCKNILACRSEELCMECQHLSQRVGSVAHRGEPTPEEPPKQRCRAPACDHFGNAKCNGYCNECYQFKQMYG
binding [2]: binds
binding [3]: binds

B3: A20-1 (1-383aa), truncated region of human A20 including the OTU domain (domain or fragment, UniProt P21580 1-383)
chain: MAEQVLPQALYLSNMRKAVKIRERTPEDIFKPTNGIIHHFKTMHRYTLEMFRTCQFCPQFREIIHKALIDRNIQATLESQKKLNWCREVRKLVALKTNGDGNCLMHATSQYMWGVQDTDLVLRKALFSTLKETDTRNFKFRWQLESLKSQEFVETGLCYDTRNWNDEWDNLIKMASTDTPMARSGLQYNSLEEIHIFVLCNILRRPIIVISDKMLRSLESGSNFAPLKVGGIYLPLHWPAQECYRYPIVLGYDSHHFVPLVTLKDSGPEIRAVPLVNRDRGRFEDLKVHFLTDPENEMKEKLLKEYLMVIEIPVQGWDHGTTHLINAAKLDEANLPKEINLVDDYFELVQHEYKKWQENSEQGRREGHAQNPMEPSVPQLSLM
binding [1]: no binding

B4: A20-3 (258-491aa), truncated region of human A20 overlapping A20-1 and A20-2 (domain or fragment, UniProt P21580 258-491)
chain: VPLVTLKDSGPEIRAVPLVNRDRGRFEDLKVHFLTDPENEMKEKLLKEYLMVIEIPVQGWDHGTTHLINAAKLDEANLPKEINLVDDYFELVQHEYKKWQENSEQGRREGHAQNPMEPSVPQLSLMDVKCETPNCPFFMSVNTQPLCHECSERRQKNQNKLPKLNSKPGPEGLPGMALGASRGEAYEPLAWNPEESTGGPHSAPPTAPSPFLFSETTAMKCRSPGCPFTLNVQH
binding [1]: no binding
